Data as given in PubChem BioAssay AID624417 (National Center for Advancing Translational Sciences (NCATS), 2012).
Out of some 410,000 compounds screened, about 6,400 (1.6%) were called active. Inconclusive means that the source gave no clear call. Such entries were picked first, then a sample of the others. Calls come from the whole dose curve; as a rule, active = well fitted inhibition curve with a large enough effect; inconclusive = small, poorly fitted or top-dose-only effect; inactive = no such curve, though single readings can be large or run the other way. No potency is given beside an inconclusive call; the fits are too rough.

Target: Glucagon-like peptide 1 receptor (Homo sapiens) (UniProt P43220)
Assay: qHTS of GLP-1 Receptor Inverse Agonists (Inhibition Mode); note: nearly all actives have a fitted effect of over 55% in size
Conditions: HEK293 GLP-1R CRE-luciferase, luminescence, 24 h, GLP-1R form is constitutively active; activity change, negative = inhibition: at 38.3 µM (top of the series) unless noted
Text: The overall goal of this project was to develop a novel assay for discovering small molecule ligands for class B1 G protein-coupled receptors (GPCRs). Very few agonists (or inverse agonists in inhibition mode) with generally weak activity for this entire group of physiologically important receptors are known to date. To establish proof-of-principle that this critical bottleneck can be overcome with a suitable screening approach, our studies focused on the class B1 receptor for glucagon-like peptide-1 (GLP-1R), a potential therapeutic target for diabetes and neurodegenerative disease. The assay was developed using a cell-based functional readout. Toward this goal, stably transfected HEK293 cell clones were established that co-express (i) a cAMP-responsive luciferase reporter gene, and (ii) constitutively active GLP-1R that upon ligand interaction inhibit (inverse agonists) the luciferase activity. In addition, two control cell lines were developed: (i) one that express only the cAMP-responsive reporter gene to enable initial exclusion of GLP-1R independent effects of candidate probes; and (ii) one with the reported gene cloned with another constitutively active orphan receptor GPR119 to enable exclusion of GLP-1R independent inhibitor effects of candidate inverse agonists. To that end, this assay was optimized for 1536-well format and screened against the MLSMR. […] NIH Molecular Libraries Probe Production Network [MLPCN] NIH Chemical Genomics Center [NCGC] Grant: NS064851 PI Name: Martin Beinborn, Tufts Medical Center
Six ul of cell suspension (200 cells/uL in DMEM + 10% Nu serum + 1% pen-strep) is dispensed in a white solid 1536-well plate. The plates are incubated for 12 hours at 37 deg C at 5% CO2 followed by addition of 23 nL compounds. After 24 hr incubation at 37 deg C and 5% CO2, 3 uL of luciferase assay detection reagent is added. A luminescence read is obtained on the PerkinElmer Viewlux after 12 min incubation at room temperature.
% is set by controls: 0 for no effect and ±100 for the full control effect; potency is the fitted concentration of half-maximal effect; tags give direction and shape of the fitted curve.

Sequence of UniProt P43220 (P43220 whole entry, looked up): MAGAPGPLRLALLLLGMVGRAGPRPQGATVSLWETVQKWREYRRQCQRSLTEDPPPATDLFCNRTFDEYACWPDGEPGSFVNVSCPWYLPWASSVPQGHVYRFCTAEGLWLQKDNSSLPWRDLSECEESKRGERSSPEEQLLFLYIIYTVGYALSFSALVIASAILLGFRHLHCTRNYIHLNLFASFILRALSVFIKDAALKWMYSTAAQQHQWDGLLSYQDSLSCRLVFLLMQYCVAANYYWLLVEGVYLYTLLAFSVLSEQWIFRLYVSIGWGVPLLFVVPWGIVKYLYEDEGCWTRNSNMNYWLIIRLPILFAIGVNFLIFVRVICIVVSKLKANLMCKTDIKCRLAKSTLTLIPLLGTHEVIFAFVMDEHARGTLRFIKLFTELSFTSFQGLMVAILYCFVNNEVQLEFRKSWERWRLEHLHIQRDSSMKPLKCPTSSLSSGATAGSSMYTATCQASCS

Row | SMILES | Potency | activity change, negative = inhibition
1 | N#Cc1c(NC(=O)c2cc(C3CC3)on2)sc2c1CCC2 | inconclusive [inhibitor, partial curve] | 
2 | CCn1cc(S(=O)(=O)N2CCN(Cc3cccc(Cl)c3)CC2)cn1 | inconclusive [inhibitor, partial curve, poor fit] | 
3 | Cc1ccc(S(=O)(=O)N2CCC(C(=O)NC3CC(C)(C)NC(C)(C)C3)CC2)cc1C | inconclusive [inhibitor, single point] | 
4 | CC(C)(C)NC(=O)CSc1nc2ccc(Nc3nc(N4CCOCC4)nc(N4CCOCC4)n3)cc2s1 | inconclusive [inhibitor, single point] | 
5 | Cn1c(=O)c2c(nc(CN3CCc4ccccc4C3)n2Cc2cccc(Cl)c2)n(C)c1=O | inconclusive [inhibitor, partial curve, poor fit] | 
6 | CCOC(=O)c1cc(-c2ccc(OC)cc2)n(CCC(=O)NCCN2CCC(C)CC2)c1C | inconclusive [inhibitor, partial curve, poor fit] | 
7 | COc1ccc(-c2cc3nc(NCCCN(C)C)n(C)c(=O)c3s2)cc1OC |  | inactive: -7.92%
8 | CCOc1ccc(NC(=O)Nc2ccon2)cc1 |  | inactive: -6.61%
9 | Cc1c(C(=O)/C=C/N(C)C)nnn1-c1ccc(Cl)cc1Cl | inconclusive [inhibitor, partial curve, poor fit] | 
10 | Cc1ccc(S(=O)(=O)Nc2cncnc2NS(=O)(=O)c2ccc(C)cc2)cc1 | inconclusive [inhibitor, partial curve, poor fit] | 
11 | Cc1cc(=O)c2c(=O)[nH][nH]c2[nH]1 |  | inactive: 8.48%
12 | O=C(N/C(=C\c1ccc([N+](=O)[O-])cc1)C(=O)N1CCOCC1)c1cccc(Br)c1 | inconclusive [inhibitor, full curve, poor fit] | 
13 | COc1ccc(C=CC(=O)c2ccc(OCc3ccccc3)c(OC)c2)cc1OC | inconclusive [inhibitor, partial curve, poor fit] | 
14 | CN1/C(=C\C(=O)Nc2ccc(F)cc2)C(C)(C)c2ccccc21 | inconclusive [inhibitor, partial curve] | 
15 | Cc1noc(C)c1S(=O)(=O)N1CCCCC1c1cc(C(=O)Nc2cccc3c2CCCC3)no1 (configuration not stated) | inconclusive [inhibitor, single point] | 
16 | C=CCOC(=O)Nc1ccc(Cl)cc1NC(=O)OCC=C | inconclusive [inhibitor, single point] | 
17 | Cc1cccc(-c2noc(CN(C)C(=O)c3ccc4c(c3)OCO4)n2)c1 | inconclusive [inhibitor, single point] | 
18 | CN(c1ccc(C(=O)NCCSCc2c(F)cccc2Cl)cc1)S(C)(=O)=O | inconclusive [inhibitor, partial curve] | 
19 | Cc1ccc(Nc2nc(-c3ccccc3)nc3ccccc23)cc1 | inconclusive [inhibitor, single point] | 
20 | COc1cc(OC)cc(C(=O)O/N=C(\N)c2ccncc2)c1 |  | inactive: 2.79%
21 | NNC(=O)CSCc1nc(-c2ccccc2)cs1 |  | inactive: -18.6%

Row | SMILES | Potency | activity change, negative = inhibition
22 | COc1ccccc1/C=C/CN1CCCC(CO)(Cc2cccc(Cl)c2)C1 (configuration not stated) | active: 11.2 µM | 
23 | CNc1nc(-c2ccc3c(c2)CCN3C(=O)c2ccccc2F)c(C)s1 |  | inactive: 0.0062%
24 | CCOC(=O)c1sc(NC(=O)CNCc2ccccn2)c(C(=O)OCC)c1C | inconclusive [inhibitor, single point] | 
25 | O=C(/C=C/c1cccs1)Nc1cccc(NC(=O)/C=C/c2cccs2)n1 | active: 3.98 µM | 
26 | O=C(Nc1nc(-c2cc(F)ccc2F)cs1)c1ccccn1 | inconclusive [inhibitor, partial curve, poor fit] | 
27 | Cc1cc(C)c(S(=O)(=O)N2CCCCC2CCNC(=O)C(=O)NC2CC2)c(C)c1 (configuration not stated) | inconclusive [inhibitor, full curve] | 
28 | C/C(=N\NC(=O)Cc1cccn1C)c1ccco1 |  | inactive: 18.4%
29 | CCN(CC)S(=O)(=O)c1cccc(-c2nnc(SCCOc3ccc(Cl)cc3)o2)c1 | inconclusive [inhibitor, single point] | 
30 | Cc1ccc(N=C(c2cccs2)N2CCOCC2)cc1 | inconclusive [inhibitor, single point] | 
31 | COc1ccc(O)c(-c2cc(-c3ccc(F)cc3)n[nH]2)c1 | inconclusive [inhibitor, single point] | 
32 | CCOC(=O)c1nnn(-c2nonc2N)c1CNc1ccc(C)c(Br)c1 | inconclusive [inhibitor, partial curve, poor fit] | 
33 | CCCOc1ccc(NC(=O)CC2C(=O)N(CC)C(=S)N2CCCN2CCN(Cc3ccccc3)CC2)cc1 (configuration not stated) | active: 7.08 µM | 
34 | CN(CC(=O)NC1CCCc2ccccc21)C1CCCCC1 (configuration not stated) | inconclusive [inhibitor, partial curve, poor fit] | 
35 | O=C1CCN(Cc2ccccc2)C=C1c1ccc(C(F)(F)F)cc1 | inconclusive [inhibitor, single point] | 
36 | O=C(CN1CCN(C(=O)c2ccco2)CC1)Nc1ccc(Cl)c(C(F)(F)F)c1 | inconclusive [inhibitor, single point] | 
37 | CC(=O)c1ccc(S(=O)(=O)Nc2ccc(-c3cn4c(C)csc4n3)cc2)cc1 |  | inactive: 4.24%
38 | C=CCOC(=O)C1=C(C)NC(SCC(=O)N(CC)CC)=C(C#N)C1c1ccccc1 (configuration not stated) | inconclusive [inhibitor, partial curve, poor fit] | 
39 | CCOC(=O)c1c(NC(=O)c2ccc(C)cc2)sc2c1CCCCC2 |  | inactive: 3.57%
40 | COc1ccc(C)cc1NC(c1nnc(-c2ccccc2)o1)c1ccc(F)cc1Cl (configuration not stated) | inconclusive [inhibitor, partial curve, poor fit] | 
41 | Cc1cc(N2CCCC2)nc2ccc(NC(=S)NC(C)C)cc12 | inconclusive [inhibitor, single point] | 
42 | COc1cccc(OCC(O)CN2CCN(C(c3ccccc3)c3ccccc3)CC2)c1 (configuration not stated) | inconclusive [inhibitor, partial curve, poor fit] | 
